Measured values: the supplement of paper PMC11417369
The list shows a part of the results.

These sequences were tested on PfHDP1 homeodomain (GST-tagged) (assay: gcPBM binding intensity (ln(normalized median fluorescence intensity)); higher = stronger DNA binding).
In short: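 An Agilent 4 × 180k array of primer-extended double-stranded 36-bp intergenic genomic probes, with negative controls, was incubated for 1 h with GST-tagged P. falciparum DNA-binding domains expressed in E. coli. Alexa488 anti-GST antibody detected bound protein, scanned at 488 nm. Binding intensity is the highest Masliner-normalised natural-log median intensity across replicate spots of either probe orientation.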

Row | Sequence | gcPBM binding intensity (ln)
1 | ATATTTTTTAGTAAGACGAAATAAATAAATCTTTAT [CACACA_negctrl_site1778] | 5.89
2 | ATTGAATATGTAAATGCACACCAAAAAAAAAAAAAA [CACACA_site9189] | 9.61
3 | TTTTTCCTATTTTTAGTGCACATATAAATAAATAAA [GTGCAC_site9821] | 10.2
4 | ATAACTTTATTCAGTTTGCACTTTTATAACAAAAGA | 8.26
5 | ATTTTTTATATTTAGTGTACATGTTTTAATTTATAA [XGTACX_site7512] | 6.98
6 | CTTATATAATTCGATAGTACATATTTTTATATATAT [XGTACX_site4045] | 6.26
7 | TATTACACATATTATACACACATATATTATAGATAT [CACACA_site6839] | 7.33
8 | TTTCTTTTTAAATGCTGTACAAAGGGTGACGTTAAA [XGTACX_site4724] | 6.7
9 | TATTCCAAATTTACTAGTACATAATCCATCCGATAA [XGTACX_site1558] | 6.38
10 | TTTCCTTATAAAAATACACACAAACTTTAATTAAAA [CACACA_site7710] | 6.54
11 | TATATATATATATATTGTACACATTGTGTTTAAATA [XGTACX_site5104] | 9.14
12 | AATAGAATGTAATATACACACATATATTTCTCTTTT [CACACA_site2630] | 6.38
13 | TTTTTATTGTTAATTTTAATTTTTTTTTTTTAATGC [CACACA_negctrl_site162] | 6.2
14 | TTGTAACCTATGCACGCACACAAGAAAAAAACAAAA [CACACA_site3775] | 9.33
15 | ATACAACAATGTGAATTATATATGGATGGAGAATGA [GTGCAC_negctrl_site148] | 6.89
16 | AAAAGGTATCCACATACGCACACCAAAAAAAAAAAT [CACACA_site347] | 6.74
17 | TCTTTTTTTTTTTTTTTTTTTTTTTATTTATTCATA [CACACA_negctrl_site1827] | 6.14
18 | TTCTTAAGGAACGAACGTACAGAATAAAAAGTAAAA [XGTACX_site4294] | 6.61
19 | ACGTAAGCGAATAAAAGTACATATATTAAAAAAAAA [XGTACX_site4458] | 6.36
20 | TTGTGAAACATCAAGAAAAAGAAATAATAAAAAGAA [GTGCAC_negctrl_site38] | 6.78
21 | GTTGAACATATATGCACACACATAAAATAAAAAAAA [CACACA_site2413] | 9
22 | TTATATTAATATATATGTACATATATTTTTTTTATA [XGTACX_site6981] | 6.66

Row | Sequence | gcPBM binding intensity (ln)
23 | TAAAAATTGCACAGAAGTACAGTATAAATATATATA [XGTACX_site3421] | 10.2
24 | TTTCTATATTGGCATACATGCAAGAACGAAAAGATT [TGCATGCA_site117] | 6.47
25 | ATAATATATGAGCAATGTACATATTTCTCATTGCAC [XGTACX_site2253] | 7.78
26 | GTTCCAGGCATTCGTGCGCACAAATAGAAACAATTA [GTGCAC_site9824] | 8.81
27 | TAAACATACCTATACACACACACACGCACACGCACA [CACACA_site6372] | 7.88
28 | AATAGGAAGACTATTTTGTATTTGATTTTTTATTCC [GTGCAC_negctrl_site453] | 5.91
29 | TAAGTATACGCATACACACACACACCCAAAAAAAAA [CACACA_site425] | 6.76
30 | CATTCAATTGAAAAATGTACAAAAATAAACATATGC [XGTACX_site1663] | 7
31 | TTAGATATGTGTAAGGGTACAAAATACTTTACATTT [XGTACX_site8204] | 6.17
32 | CTTCAATATATTCTTACACACTTAAAAAAAAAAATA [CACACA_site4287] | 6.48
33 | ATAACTTGTATATATACACACACACCCTTTCTTTTT [CACACA_site8600] | 7.38
34 | TATATTATATTATACATACACACCCATATAATATGT [CACACA_site869] | 7.03
35 | TTAAGAAATAACAATGCACACATTTAGGTCTTTTAT [CACACA_site3285] | 9.44
36 | ATATATATGTTTTATAGTACACACATAAATGGACAT [XGTACX_site4538] | 6.68
37 | CTATTATTTTTAAATTGTACTATAACAAAATGTATA [XGTACX_site3916] | 6.27
38 | AAATAAATCTATAATACACACAAAAATATAAAATGC [CACACA_site7700] | 7.16
39 | TTTATATTTATATAAATATAATATATATGAATTATA [XGTACX_negctrl_site466] | 6.35
40 | AAAGATGATAAAATATGTACACACAGTTTATACATT [XGTACX_site8703] | 6.1
41 | TGAGTCTTTTACATTGCACACACATTTCTTTCCTTT [CACACA_site8978] | 9.92
42 | ATTATCCATCAAAAGGTGCAAATTTTTAATTATAAA [GTGCAC_site9932] | 9.41
43 | TTTTTTGTTATTTTCCGTTTTTTTCCATTATAATTT [GTGCAC_negctrl_site461] | 7.15
44 | TATTCAAAGAAAAACTGTACGTGTAGCCTACATCCT [XGTACX_site7707] | 6.15

Row | Sequence | gcPBM binding intensity (ln)
45 | ACGTTAAAAACAAGTTGTACACAATAAATTATTCTT [XGTACX_site6321] | 6.76
46 | TATATATATATATGTAGTACTTTACAAAATAATTCG [XGTACX_site5322] | 9.21
47 | GCATAACCTTTATATTGTACATATACCTTTATTGTT [XGTACX_site6046] | 7.15
48 | TTTATATTTATGTAGGTGCATTTGTTTACAACATAT [GTGCAC_site9511] | 9.76
49 | TTATTTATACGCTATGAGTTTGATACAAACAATTAA [XGTACX_negctrl_site456] | 6.82
50 | TTTTTACGGAATTAGAGAAAAGAAATAAAAAAAAAA [XGTACX_negctrl_site436] | 6.28
51 | TAGTTATCACATTGCACACACATTTCCTTTTACATT [CACACA_site7589] | 9.83
52 | AATAAAAAAAAAATATATATTTTTTTTTTTTTTTTT [CACACA_negctrl_site54] | 6.57
53 | ATCTATTCACACTTTTAAAAATTAAATATATTATAT [TGCATGCA_negctrl_site610] | 7.15
54 | TAATTTTTTTTTTATAGTACACATATTAAAGAATTA [XGTACX_site2485] | 6.27
55 | ATATATGTATATATGTACATGAATATATAAAGAAAA [CACACA_negctrl_site315] | 6.94
56 | TATTTATACTAATATGCATGTAATCGAAATACAGCT [TGCATGCA_site457] | 6.33
57 | GTTTATATTTAATTTTTTTGTTTTTTTGTGTAATTC [XGTACX_negctrl_site194] | 6.56
58 | ACAAATAAATAAATATGTACTTAATTATATAATTGA [XGTACX_site5626] | 6.16
59 | ATATATATAAACAAAAGTACATATATAAATTCATTT [XGTACX_site3482] | 6.31
60 | TTAAAGTTACATTCGACACACACATAACAACTAAAT [CACACA_site9130] | 6.99
61 | TCTTATATTATATTGTGTATTAAAATTTAACTTCAA [TGCATGCA_negctrl_site565] | 6.58
62 | TTTGTAGCACTTAAGAGTACAAAATGTATAAGATTT [XGTACX_site2321] | 6.53
63 | TTAATATAATTAAAATGTACTTATTTGTAAACATTA [XGTACX_site6313] | 5.98
64 | GACCATGTTAACAAAGCATGCATCTCTATATGTTTA [TGCATGCA_site358] | 6.87
65 | AAGAAAAACAATACGTGTACCAAGCATCCTACTAAC [XGTACX_site6628] | 6.63
66 | AAAAAAAAAAGAAAGAGTACTTTTTCAATACATATA [XGTACX_site2468] | 6.09

Row | Sequence | gcPBM binding intensity (ln)
67 | TTATTTTATAAATCGAAAACAAACAAAAAAAAGATA [XGTACX_negctrl_site178] | 6.69
68 | TTGCTGTATTTATTTTGTACACATTTGGCATTATAT [XGTACX_site3408] | 7.28
69 | ACATAAAATAAATATACACACATATGTATATATCAT [CACACA_site7424] | 6.52
70 | CAAATACATAGACACACACACATATACATATTTATA [CACACA_site7610] | 6.73
71 | TTTATATTTAAATGCATGCACTTTCTATTTTTTTTT [GTGCAC_site9959] | 7.46
72 | GAATAAAGGAGAGGCACACATATATATATATATATA [CACACA_site2452] | 9.33
73 | TATTTGATAAATTATACACACACAATATATATAAAA [CACACA_site8625] | 6.61
74 | GAGGATCATCAATTCACACACATAAAAATGAAGTTA [CACACA_site3078] | 6
75 | TATATAAAATTCTATTGTACATGTTATACGAAAGAA [XGTACX_site5711] | 6.54
76 | CAACGATACAAAAAAGGTACACATATATATATATAT [XGTACX_site8688] | 9.23
77 | TTCTTTTTAATGTCGGTGCAACTCCATAAAAACAAA [GTGCAC_site9488] | 10.9
78 | CAATTTTCTAATGAAACATGCAAAATAAAATTTTAT [TGCATGCA_site13] | 6.48
79 | AAAAAAAAGGAAAATAAAAATAAAAAAAAATAATAA [XGTACX_negctrl_site601] | 6.23
80 | TGAGAAAAAAAGAATTGTACATATAAAATATAACAA [XGTACX_site3500] | 5.87
81 | AATAAAAAGAAACACACACACACACCCATATATATA [CACACA_site3589] | 7.1
82 | AAAGATACTTTCCTCAAACACACAAAACTATACAAC [CACACA_site1475] | 6.94
83 | TTATCACATTATTGCACACACATAAAGAAAAAAATA [CACACA_site2841] | 9.63
84 | ATATAAGAACAAAATTGTACATAAATATTTATATAA [XGTACX_site7404] | 6.54
85 | TCATACATTTTCCTTGCACACATTTATAATTAATGG [CACACA_site4511] | 8.55
86 | AACAAACACAGACACACACACACACTAATATGATTA [CACACA_site8770] | 6.8
87 | ATATACTATTATGTGTGTACATAATAATTTATTATA [XGTACX_site3776] | 6.42
88 | TAAAACAAAAAAAAGATGCACTATTTATTTTATTAT | 7.73
